From the supplement of paper PMC10320760
Single values of this set are uncertain.

B1: Ydj1; a variant is named by its letters at X, in order (parent)
chain: MVKETKFYDILGVPVTATDVEIKKAYRKCALKYHPDKNPSEEAAEKFKEASAAYEILSDPEKRDIYDQFGEDGLSGAGGAGGFPGGGFGFGDDIFSQFFGAGGAQRPRGPQRGKDIKHEISASLEELYKGRTAKLALNKQILCKECEGRGGKKGAVKKCTSCNGQGIKFVTRQMGPMIQRFQTECDVCHGTGDIIDPKDRCKSCNGKKVENERKILEVHVEPGMKDGQRIVFKGEADQAPDVIPGDVVFIVSERPHKSFKRDGDDLVYEAEIDLLTAIAGGEFALEHVSGDWLKVGIVPGEVIAPGMRKVIEGKGMPIPKYGGYGNLIIKFTIKFPENHFTSEENLKKLEEILPPRIVPAIPKKATVDECVLADFDPAKYNRTRASRGGANYDSDEEEQGGEGVQCXXX

Variants of: B1
Test: enrichment factor, frequency at 37 °C / frequency at 25 °C (thermotolerance selection) (ratio); higher = more growth at 37 °C, higher likelihood of farnesylation
Settings: with Saccharomyces cerevisiae ydj1Δ (yWS304); selective temperature 37 °C; reference temperature 25 °C

| Variant | enrichment factor |
| --- | --- |
| EYS | 1.67 |
| EYY | 1.21 |
| EYV | 1.39 |
| EYR | 0.163 |
| EYW | 1.29 |
| EYQ | 2.08 |
| EYT | 1.76 |
| SYT | 1.97 |
| SYW | 0.907 |
| SYQ | 2.32 |
| SYV | 2.09 |
| SYR | 0.0852 |
| SYS | 2.83 |
| SYY | 2.07 |
| DYS | 0.578 |
| DYV | 0.543 |
| DYT | 0.386 |
| DYQ | 1.39 |
| DYW | 0.391 |
| DYY | 0.91 |
| DYR | 0.114 |
| FYW | 1.3 |
| FYS | 1.94 |
| FYT | 2.02 |

| Variant | enrichment factor |
| --- | --- |
| FYY | 1.55 |
| FYV | 1.38 |
| FYR | 0.12 |
| FYQ | 2.46 |
| WYW | 0.883 |
| WYV | 1.88 |
| WYT | 1.68 |
| WYY | 0.936 |
| WYQ | 1.53 |
| WYS | 1.25 |
| WYR | 0.228 |
| GYY | 2.05 |
| GYW | 0.849 |
| GYV | 1.4 |
| GYT | 1.39 |
| GYR | 0.169 |
| GYS | 1.64 |
| GYQ | 1.28 |
| RYR | 0.122 |
| RYT | 1.58 |
| RYV | 1.55 |
| RYW | 0.656 |
| RYS | 2.09 |
| RYY | 1.32 |

| Variant | enrichment factor |
| --- | --- |
| RYQ | 1.49 |
| AYV | 2.23 |
| AYR | 0.205 |
| AYY | 2.08 |
| AYQ | 2.13 |
| AYW | 1.43 |
| AYS | 2.72 |
| AYT | 1.84 |
| KYR | 0.0965 |
| KYY | 0.631 |
| KYV | 1.28 |
| KYW | 0.543 |
| KYQ | 3.19 |
| KYT | 1.46 |
| KYS | 1.97 |
| HYR | 0.268 |
| HYY | 1.37 |
| HYQ | 3.07 |
| HYV | 2.83 |
| HYT | 1.63 |
| HYS | 3.23 |
| HYW | 0.699 |
| LYW | 0.841 |
| LYR | 0.14 |

| Variant | enrichment factor |
| --- | --- |
| LYT | 2.08 |
| LYQ | 1.83 |
| LYS | 2.54 |
| LYV | 2.36 |
| LYY | 0.924 |
| VYT | 2.2 |
| VYW | 1.28 |
| VYV | 0.827 |
| VYR | 0.158 |
| VYY | 2.52 |
| VYS | 0.939 |
| VYQ | 2.11 |
| QYV | 2.6 |
| QYY | 1.38 |
| QYS | 2.54 |
| QYR | 0.122 |
| QYQ | 2.81 |
| QYW | 1.21 |
| QYT | 2.23 |
| NYW | 0.473 |
| NYY | 1.18 |
| NYV | 1.71 |
| NYT | 1.6 |
| NYS | 2.47 |

| Variant | enrichment factor |
| --- | --- |
| NYR | 0.209 |
| NYQ | 2.08 |
| MYV | 1.87 |
| MYS | 2.57 |
| MYT | 1.91 |
| MYW | 1.13 |
| MYY | 1.11 |
| MYQ | 1.8 |
| MYR | 0.155 |
| CYT | 1.31 |
| CYQ | 1.37 |
| CYR | 0.186 |
| CYV | 0.649 |
| CYY | 0.27 |
| CYW | 0.313 |
| CYS | 2.5 |
| IYT | 2.06 |
| IYV | 2.39 |
| IYY | 2 |
| IYS | 2.12 |
| IYR | 0.1 |
| IYW | 0.853 |
| IYQ | 1.75 |
| PYT | 1.74 |

| Variant | enrichment factor |
| --- | --- |
| PYS | 1.7 |
| PYQ | 1.42 |
| PYV | 1.64 |
| PYW | 0.745 |
| PYY | 1.44 |
| PYR | 0.123 |
| YYP | 0.222 |
| YYR | 0.0869 |
| YYY | 1.53 |
| YYV | 1.75 |
| YYQ | 2.37 |
| YYS | 2.2 |
| YYT | 1.71 |
| YYW | 1.27 |
| TYT | 2.77 |
| TYR | 0.144 |
| TYY | 2.04 |
| TYS | 2.03 |
| TYQ | 2.66 |
| TYW | 0.906 |
| TYV | 2.43 |
